In all, about 33,000 sequences were measured (“E-score (-0.5 to 0.5)”: median about -0.016, highest 2% from about 0.31 on). The list shows a part of the results.
What follows are sequences tested against Cst6 (UniProt P40535) (assay: PBM E-score (8-mer binding enrichment) (E-score (-0.5 to 0.5)); higher = stronger / more preferred TF binding; most listed sequences are background and not binding sites). Conditions: protein concentration: 200 nM; construct: GST-DNA-binding domain.
Procedure, shortened: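 GST-tagged yeast TFs (full-length or DNA-binding domain) were made by PURExpress in vitro transcription/translation and applied at about 100-200 nM to universal all-10-mer Agilent arrays. The arrays were made double-stranded by primer extension, on fresh or once-stripped slides. Bound protein was detected with fluorescent anti-GST, and scans were normalised with masliner. Each ungapped eight-base word, pooled with its reverse complement, received an E-score (modified Wilcoxon-Mann-Whitney statistic) from the Universal PBM Analysis Suite.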

Sequence | PBM E-score
ACTGTCCG | -0.145
CTGTGGTA | -0.0525
AACCTTAC | 0.196
GCCAGAAA | 0.0609
AATGGTTA | 0.0763
CCACGCCG | -0.0688
CCCTATAA | -0.148
ACGTACTC | 0.177
TCCATAAA | 0.123
CGATCCTC | -0.156
CTCTGGTC | -0.0874
AAGGCAGA | -0.238
GTCTCCAC | -0.106
GATCCAGA | -0.00579
CAGCGATA | -0.191
AGATAATC | 0.0163
CAGGTTCA | -0.196
CTGGACTA | -0.267
CCAAGGAG | -0.0523
CGTGTGAA | 0.0381
GCGATCTA | 0.0209
ATCGAGAC | -0.117
AGCCATAT | 0.0167
ATCGTGCA | 0.0523
CCAACTAC | 0.0257

Sequence | PBM E-score
CCGCTCAG | 0.0132
CCATCGAG | 0.0483
TATTAATA | 0.0736
CTCCTCGA | -0.0124
ACGGACAC | 0.104
CAACACGG | 0.0445
CTTCGCGC | 0.22
GACACAGA | 0.126
CAGCCTAA | -0.0455
AAGGGACT | -0.229
AAGACTAT | 0.0259
AAGATTCA | 0.0725
CTACTCTA | 0.123
CGATTAAA | 0.172
GATCTGAC | 0.0852
ATTTGGTA | 0.145
CCCGGGTC | -0.333
AGCGCGGC | 0.115
CGGGTAAA | 0.0858
AGGGCTCG | -0.269
AAGAAATG | 0.215
CCTCACCA | 0.0882
ACCGAGGG | -0.446
AAGTGGTA | -0.0919
ATTTTTGA | 0.153

Sequence | PBM E-score
CTGGTCCC | -0.425
CCAACGAG | -0.262
AACTATTA | 0.221
ACTTAATG | 0.159
ATATTATG | 0.291
GTCGCTAA | 0.0821
ATATGCAA | 0.187
CATCCTCG | 0.0458
AGCGTTCC | -0.123
GATTAATC | -0.0489
CTATTGAG | 0.115
CACACCTA | -0.0684
CGGGGCCA | -0.234
ACTGGCAT | -0.143
CAATTATG | 0.237
ACGCATAT | 0.0868
CCTCGTTC | -0.0622
TATTACGA | 0.283
ATATTGAT | 0.253
ATCAAACA | 0.107
AATCCCAA | 0.0031
TTTCGAAA | 0.223
AGGTACTG | -0.085
GGGACCAC | -0.0412
ATTAGACA | 0.0393

Sequence | PBM E-score
ACGGAGAT | -0.0389
AGCCGATG | -0.131
AAATTAAC | 0.2
CTGCCACC | -0.0419
ACAAGCGC | -0.0824
ACCGAATC | -0.00093
ACGCATCT | 0.079
GCATGTCC | -0.224
CAGTCGCA | -0.0676
TGTAGACA | 0.0564
CATGATAA | 0.155
CGGCTCAG | 0.209
CTGTTCTA | -0.0878
ACGCATAG | -0.0309
CTCGGAAC | -0.156
ATCGTGTA | 0.0383
AAGGTCTC | -0.126
TTCGCAAA | 0.146
AACCCCTG | -0.373
GCAACGAA | 0.16
ATCTAAAC | 0.0673
AGTTGATC | 0.147
ACTGCCAA | -0.054
AGGAGAAT | -0.038
AGAATATC | 0.0571

Sequence | PBM E-score
ACGAACGA | 0.0476
AGACATGG | -0.0372
GTTTGTGA | 0.0799
AGACGTGA | 0.0119
CGTCATGC | 0.472
ATCAATGG | -0.0319
CCGATAGG | -0.183
AACTGAGC | -0.152
CCCAGCGC | -0.215
AATTGCAA | 0.163
CATGCGCC | 0.0487
AACAGGTT | -0.0214
AGTTCATG | -0.0471
CAATCAGC | -0.117
ATGACGTC | 0.497
AATTGATG | 0.242
AGCCTTAT | -0.0913
GGGATCAA | 0.0155
GACGGACA | 0.175
CGGTGGAG | -0.325
CTCAAGCC | -0.183
GAGAGAGC | -0.197
CGGCCGAA | 0.0148
GAATGCGA | 0.114
AGTAGCTA | 0.118

Sequence | PBM E-score
CTATCCAG | -0.137
AGCATACA | 0.165
GTTTCGGA | 0.0663
GGTAGCAC | -0.266
AGGCCGTG | 0.0348
AAGTAATT | 0.22
ATTATTTC | 0.251
CCTCCCAG | -0.212
CACAACGC | 0.119
ATCCTTGA | -0.0599
CGAGATGC | -0.116
GGGACCCA | -0.238
ACCCTCAA | -0.237
AATTTCCG | 0.112
ATATCAGG | 0.106
ATTTCAAA | 0.211
CACGCGCA | -0.0519
AATAGCTG | 0.0474
GGTGGGAA | -0.146
CCTCCGCC | -0.216
AGTAGGCG | 0.0103
CTATAGTA | -0.0525
CAACTCGA | -0.0544
ACGACTGA | -0.107
CGCCATGA | 0.0827

Sequence | PBM E-score
TACTGTAA | 0.0263
ATTGTCTC | -0.00153
TGAAACCA | -0.0373
AATAAGTA | 0.215
AGATTTGA | 0.137
GCGCCCTA | -0.0411
ATCTTTCA | 0.155
AGTCTTGC | -0.0228
AGTCCAAC | -0.275
GGGGTTCA | -0.296
ACAAGCAC | -0.0185
GTGTACGA | -0.0474
AAAAAGTG | 0.242
CCGGTCGC | -0.143
GCCCAGAC | -0.395
CCTGAAAA | 0.0412
ATAGTGAT | 0.253
ACTCTTAC | 0.134
AAGTGTAG | 0.00605
CGGTCCGA | -0.171
TAGAAAGA | -0.0936
AATAGGAG | -0.122
GACGCAGC | 0.169
AGAAGCGC | 0.151
AATTGAAG | 0.0234

Sequence | PBM E-score
ACTAGGAG | -0.234
GCCGTGGA | 0.105
CGACACTA | -0.0515
AGAACAAC | 0.034
CATTTATA | 0.226
CTGGTTCA | -0.191
AAGCCCTT | -0.189
CATACCCA | -0.0162
AGGGGACG | -0.197
CACACGCG | 0.0985
CCGGACGA | -0.261
CCTTCAGA | -0.156
AGACCGGG | -0.298
CTCGAATC | -0.22
CCCGGGCA | -0.142
AGCGCTAG | -0.149
CTACCTCA | -0.0239
CATGTCCG | -0.219
ACGCAAGG | 0.212
AGGGTTGA | -0.108
AAATCCTT | 0.0381
CACCGGTC | -0.339
CAGTAGGA | -0.163
TACCGGCA | -0.0244
ATAACAGA | 0.204

Sequence | PBM E-score
ACCGACTG | -0.145
AACAAAAC | 0.198
CCCGTTCC | -0.132
AAACTTAA | 0.224
AGTTAGGG | -0.234
ATTACGAC | 0.294
GAGTCCCA | -0.141
CTACATTA | 0.0261
CACAAACA | 0.091
AGAACACC | -0.0606
CCATTAGA | -0.271
ATCTAATG | 0.0674
ACACAAGA | 0.128
GAGATTCC | -0.0509
AATCTTCC | -0.187
ATGTTAGG | 0.041
AGAAGTCT | -0.118
ATACAGCA | -0.0259
TACTTGGA | 0.186
GTGACGGA | 0.352
CAGCCGGG | -0.229
TATGTTAA | 0.162
GGCCCTGA | -0.208
CGCGACTA | -0.0629
AAAAGACT | -0.128

Sequence | PBM E-score
AATGTCAT | 0.356
GACGAGAC | -0.0666
CGCTCTAA | 0.0533
TAGAGTCA | -0.2
ATGCTCCC | -0.354
GTTTTCCA | 0.185
ATCGGACG | -0.186
GGTGAAGA | -0.0221
ACTAGCGG | -0.166
CAAGGAAA | 0.0274
CGAGGGGC | -0.228
CCCACTCG | -0.365
ATTAGTTC | 0.155
ACCTTTCC | -0.205
TAGGGCCA | -0.152
AAAAGTTG | 0.0259
TAGGCTGA | -0.0803
CGCCAATC | 0.0649
ACCGTCAG | -0.0719
CAAACTCA | 0.0635
CGCAGGAC | -0.166
CATATATG | 0.341
ACTTCTTC | 0.111
TCAGAAAA | 0.105
AAGGTCAC | -0.101

Sequence | PBM E-score
CCTGCTGA | 0.0736
CCCCTCTA | -0.297
AACTACAG | -0.121
GAGCAAGC | -0.227
AGGGGGAA | -0.24
AATCTAGT | 0.137
CCGAACAA | -0.0345
AAGGTTGA | 0.0598
CTCAGCAG | -0.203
CGTTCACA | 0.0373
CACCAGGA | 0.016
TACGGTGA | 0.166
GCCAGGGC | -0.275
CTCTGCCC | -0.178
AAGGACTA | -0.115
AGCGGGCC | -0.0486
CGCCCTCC | -0.22
ATTCAGGG | -0.0542
CGCATTGA | 0.223
CTCTGAAC | -0.17
CGGATGAC | 0.321
CGCTTGAC | -0.0844
CGTATTAC | 0.194
GACCCTAA | -0.095
GAGTTTAA | 0.157

Sequence | PBM E-score
CCACTCGC | -0.189
CAGTCGGG | -0.122
TACGCACA | 0.117
CGCTGGGC | -0.2
ACAAATAA | 0.278
CGATCGCA | 0.141
AGGTCCGC | -0.32
AAAGCTAA | 0.0854
GGACCTGA | -0.162
ATGCAGGG | -0.136
GCTATCAC | -0.059
GTACGCGA | 0.0765
TGGCCACA | -0.0413
ACAAATTG | 0.0939
ATATCCGG | -0.158
CCTGGTTA | -0.0917
TCTCAGCA | -0.138
TATTCGGA | 0.138
GAACCGGA | -0.111
CGACCGAC | -0.00451
TGGGCGAA | -0.132
AGGATGCA | -0.0624
ATCCGTTA | 0.292
AGTAATCA | 0.116
CAAAGACA | 0.144

Sequence | PBM E-score
ACGTCCTA | 0.0158
GAACGCAC | 0.0723
AAGGACTC | -0.228
AAACGTAG | -0.0946
AACAGTTG | -0.0544
ATTAGCGC | 0.118
ACCCGCCT | -0.188
ATCCACTC | 0.0244
TCGAGCCA | -0.0851
ACCTTTTG | -0.203
CTCCAGTC | -0.133
CGGAAACG | -0.0295
AGTGAGGG | -0.256
ACGGCATA | 0.245
AATCTCGC | 0.176
AAGCACAA | 0.149
CAGCATTA | 0.0701
CTAGCCAG | -0.212
GGCTATAC | -0.171
AACTTTTG | 0.111
ACCTAACT | 0.125
GAATCCGA | -0.0559
GATGTGGA | 0.0375
AGGTGAAC | -0.114
CTTCGTAC | -0.193

Sequence | PBM E-score
GACCCCCA | -0.47
CCTCAACG | -0.102
ATCATTCC | 0.0946
CTACAAAC | 0.0213
CAAACATA | -0.07
ATGTTCGG | -0.06
ACGTGATC | 0.164
CTATACTA | 0.0578
AGACCAAA | -0.0563
GCAATTAA | 0.145
AAGGAGAG | -0.258
AGAACAGC | -0.00087
ATCATAGC | 0.232
GAACTACC | -0.157
GAACACGC | 0.0457
CTGCTGAC | 0.056
CTAATCTA | -0.0326
GTCCTAGA | -0.246
AAACCATG | -0.0483

— the supplement of paper PMC3334620
